For six molecules, binding results are on record in paper PMC3720919, “Mcm10 Self-Association Is Mediated by an N-Terminal Coiled-Coil Domain” (PLoS ONE, 2013).

These are yes or no findings as the source states them, for the method shown. For some of these results: Tags and fused reporters may be left off the sequences shown.

Test [1] concerns the target MBP-CC 95-124 L104D/L108D (2D mutant) (Xenopus laevis) (UniProt Q5EAW4). Kind of test: AUC; sedimentation velocity of wild-type, 2D and 4A MBP-CC 95-124 and NTD (Figure 5), 42,000 rpm, 20°C, 0.6 mg/ml; which of the two buffers (pH 7.4 or pH 4.7) is not stated for this figure; both purified.
The target of test [2] is Mcm10ΔN (aa 230-860) (Xenopus laevis) (UniProt Q5EAW4). Kind of test: SEC-MALS; Superose6 10/300 GL, 0.4 ml/min, 25 mM Tris pH 7.5, 150 mM NaCl, 2% glycerol, 2 mM BME; both purified.
Test [3] has the same target. The experiment in a line: AUC; sedimentation velocity, 42,000 rpm, 4°C; Mcm10ΔN 1.0 mg/ml in 25 mM Tris pH 7.5, 150 mM NaCl, 2 mM MgCl2, 5% glycerol, 4 mM BME; both purified.
The target in test [4] is Mcm10-NTD (aa 1-145) L104D/L108D (2D mutant) (Xenopus laevis) (UniProt Q5EAW4). Kind of test: AUC; sedimentation velocity of wild-type, 2D and 4A MBP-CC 95-124 and NTD (Figure 5), 42,000 rpm, 20°C, 0.6 mg/ml; which of the two buffers (pH 7.4 or pH 4.7) is not stated for this figure; both purified.
Test [5] addresses Mcm10-NTD (aa 1-145) L104A/L108A/M115A/L118A (4A mutant) (Xenopus laevis) (UniProt Q5EAW4). Described as above.
Test [6] addresses Full-length Xenopus laevis Mcm10 L104D/L108D (2D mutant), purified (Xenopus laevis) (UniProt Q5EAW4). Kind of test: AUC; sedimentation velocity, 42,000 rpm, 4°C; full-length Mcm10 1.6 mg/ml (2D mutant 1.0 mg/ml) in PBS pH 7.4, 150 mM NaCl, 0.3 mM TCEP; c(s) analysis; both purified.
Test [7] concerns the target MBP-CC 95-124 L104A/L108A/M115A/L118A (4A mutant) (Xenopus laevis) (UniProt Q5EAW4). The experiment in a line: AUC; sedimentation velocity of wild-type, 2D and 4A MBP-CC 95-124 and NTD (Figure 5), 42,000 rpm, 20°C, 0.6 mg/ml; which of the two buffers (pH 7.4 or pH 4.7) is not stated for this figure; both purified.

For the molecule VCQEKSKDEDEDEDRKMQAQMKKLQEQLQK (domain or fragment, UniProt Q5EAW4 95-124) [MBP-CC 95-124 L104D/L108D (2D mutant)], in test [1], the binding result is “no binding (tested: 0.6 mg/ml)”.

B1: Mcm10ΔN (aa 230-860) (domain or fragment, UniProt Q5EAW4 230-860)
chain: SPVGQQYHVEKFSGLRIRKPRVSSSEMERKMNGRKLIRLAQLQNKIATEKLEEEDWVTFGVIVKKITPQSSNNGKTFSIWRLNDLKDLDKYISLFLFGDVHKEHWKTDQGTVIGLLNANPMKPKEGTDEVCLSVDNPQKVLLMGDAVDLGTCKARKKNGDPCTQMVNLNDCEYCQYHVQAQYKKVSSKRADLQSSYSGHVPKKMARGANGLRERLCQGGFHYGGVSSMAYAATLGSTTAPKKTVQSTLSNMVVRGAEAIALEARQKIAAAKNVVQTDEFKELMTLPTPGALNLKKHLSGVSPQANCGKEGQPIQSISASTLLKQQKQQMLNARKKRAEESQKRFLESTEKSEKSSTLTSSACSVFQSPKQGAEFPNAQKMATPKLGRGFAEGDDVLFFDISPPPAPKLSTSAEAKKLLAIQKLQAKGQTLAKTDPNSIKRKRGSSSEELVAQRVASHASTSPKSPDENEPAIKKHRDQLAYLESEEFQKILNAKSKHTGILKEAEVEIQEHYFDPLVKKEQLEEKMQSIREQSCRVVTCKTCKYTHFKPKETCVSENHDFHWHNGVKRFFKCPCGNRTISLDRLPKKHCSTCGLFKWERVGMLKEKTGPKLGGETLLPRGEEHGKFLNSLK
Turning to B1, the values for the binding result in test [2] and in test [3] were “no binding” and “no binding (tested: 1.0 mg/ml)”, respectively.

B2: Mcm10-NTD (aa 1-145) L104D/L108D (2D mutant) (domain or fragment, UniProt Q5EAW4 1-145)
chain: MEVDADLELLTSLLEENEAAERNGVVSHEASSELDEFDELFDGDEDGSYHGSDNGTEEQTIGGVEEDFTTLFGDIDDIKEEEAAASDTKKQSSSVCQEKSKDEDEDEDRKMQAQMKKLQEQLQKTALAKTSSPGNPKKSPENKMV
In the case of B2, the binding entry in test [4] is on record as “no binding (tested: 0.6 mg/ml)”.

B3: Mcm10-NTD (aa 1-145) L104A/L108A/M115A/L118A (4A mutant) (domain or fragment, UniProt Q5EAW4 1-145)
chain: MEVDADLELLTSLLEENEAAERNGVVSHEASSELDEFDELFDGDEDGSYHGSDNGTEEQTIGGVEEDFTTLFGDIDDIKEEEAAASDTKKQSSSVCQEKSKDEAEDEARKMQAQAKKAQEQLQKTALAKTSSPGNPKKSPENKMV
Turning to B3, the binding entry in test [5] is “no binding (tested: 0.6 mg/ml)”.

B4: Full-length Xenopus laevis Mcm10 L104D/L108D (2D mutant), purified (protein, UniProt Q5EAW4 1-860)
chain: MEVDADLELLTSLLEENEAAERNGVVSHEASSELDEFDELFDGDEDGSYHGSDNGTEEQTIGGVEEDFTTLFGDIDDIKEEEAAASDTKKQSSSVCQEKSKDEDEDEDRKMQAQMKKLQEQLQKTALAKTSSPGNPKKSPENKMVQSGKTSRTSPLIERKKTDSNTVAPQLTSPTVPKAKLPDAPKRKQNLSDKSPVQKKMASFLSPPEKSSARPGQSTATQPITNTLKSPVGQQYHVEKFSGLRIRKPRVSSSEMERKMNGRKLIRLAQLQNKIATEKLEEEDWVTFGVIVKKITPQSSNNGKTFSIWRLNDLKDLDKYISLFLFGDVHKEHWKTDQGTVIGLLNANPMKPKEGTDEVCLSVDNPQKVLLMGDAVDLGTCKARKKNGDPCTQMVNLNDCEYCQYHVQAQYKKVSSKRADLQSSYSGHVPKKMARGANGLRERLCQGGFHYGGVSSMAYAATLGSTTAPKKTVQSTLSNMVVRGAEAIALEARQKIAAAKNVVQTDEFKELMTLPTPGALNLKKHLSGVSPQANCGKEGQPIQSISASTLLKQQKQQMLNARKKRAEESQKRFLESTEKSEKSSTLTSSACSVFQSPKQGAEFPNAQKMATPKLGRGFAEGDDVLFFDISPPPAPKLSTSAEAKKLLAIQKLQAKGQTLAKTDPNSIKRKRGSSSEELVAQRVASHASTSPKSPDENEPAIKKHRDQLAYLESEEFQKILNAKSKHTGILKEAEVEIQEHYFDPLVKKEQLEEKMQSIREQSCRVVTCKTCKYTHFKPKETCVSENHDFHWHNGVKRFFKCPCGNRTISLDRLPKKHCSTCGLFKWERVGMLKEKTGPKLGGETLLPRGEEHGKFLNSLK
In the case of B4, the binding result in test [6] is “no binding (tested: 1.0 mg/ml)”.

VCQEKSKDEAEDEARKMQAQAKKAQEQLQK (domain or fragment, UniProt Q5EAW4 95-124) [MBP-CC 95-124 L104A/L108A/M115A/L118A (4A mutant)]: in test [7], the binding entry is given as “no binding (tested: 0.6 mg/ml)”.
